Measurements from PubChem BioAssay AID1345083 (National Center for Advancing Translational Sciences (NCATS), 2018).
About 6,200 (6.6%) of roughly 94,000 compounds were called active. The inconclusive results got no clear call from the source; some entries with a clear call stand among them for comparison. Calls follow the shape of the dose curve; as a rule, active = well fitted inhibition curve with a large enough effect; inconclusive = small, poorly fitted or top-dose-only effect; inactive = flat fitted curve, though single readings scatter. A potency beside an inconclusive call is a rough fit, not a confirmed value.

Assay: Cytotoxic Profiling in HEK 293 Cell Line of Diverse Libraries Using Quantitative High-Throughput Screening; also: nearly all actives have a fitted effect of over 60% in size
Conditions: HEK 293 viability, ATP luminescence (CellTiter-Glo), 48-72 h; series mostly up to 115 µM
Outline: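 CellTiter-Glo luminescence (cellular ATP) was read after 48 or 72 hr of compound exposure at 37 degree Celsius. Cells were HEK 293 plated at 250 cells/well.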
Potency is read from the fitted curve at half-maximal effect; tags tell the direction and shape of the fitted curve.

SMILES	Potency
Cc1ccc(N2CCN(C(=O)c3ccc(Cn4cccn4)o3)CC2=O)cc1	inactive
O=C(NCC1CC1)C1CCN(C(=O)c2ccc(-c3cncnc3)cc2)CC1	inactive
Cc1nc(C)c(C(=O)N2CCC(Cc3noc(-c4ccccc4)n3)C2)s1 (stereo not drawn)	inconclusive: 50.1 µM [inhibitor, partial curve, poor fit]
CC(C)N(Cc1cnn(C)c1)Cc1cn(Cc2ccccc2)nc1-c1ccc2c(c1)OCO2	inactive
OCC1CN(c2ncccn2)CC12CCN(Cc1cccc(Cl)c1F)CC2 (stereo not drawn)	inconclusive: 50.1 µM [inhibitor, partial curve, poor fit]
CNc1nc2c(s1)C(c1cccc(F)c1)CC(=O)N2 (stereo not drawn)	inactive
O=C(NC1CCN(c2cc(-c3cccs3)[nH]n2)CC1)c1ccc(F)c(F)c1	inconclusive: 50.1 µM [inhibitor, partial curve, poor fit]
O=C(c1ccc(Cl)cc1)N1CCN(c2ccnc3ccnn23)CC1	inconclusive: 25.1 µM [inhibitor, full curve, poor fit]
COc1ccc(C(=O)NC2CCCN(c3cc(-c4ccc(F)cc4)[nH]n3)C2)cc1OC (stereo not drawn)	inconclusive: 44.7 µM [inhibitor, partial curve, poor fit]
CC1=C[C@@H](CNS(=O)(=O)c2ccccc2)[C@H](C(C)C)C[C@H]1Cc1nnc(-c2ccncc2)o1	active: 25.1 µM
O=C1NCCCN1C1CCN(Cc2ccccc2OC(F)(F)F)CC1	inactive
COc1ccc(CNC(=O)N2CCCC2c2noc(COc3ccc(C)cc3)n2)cc1 (stereo not drawn)	inconclusive: 79.4 µM [inhibitor, partial curve, poor fit]
Cc1ccc(NC(=O)N[C@H]2C[C@@H](c3nc(-c4ccc5c(c4)OCO5)no3)N(C)C2)cc1	inconclusive: 12.6 µM [inhibitor, full curve, poor fit]
Cc1cn2nc(C(=O)NC3CCCC3)cc2c(N2CCCC2)n1	inconclusive: 89.1 µM [inhibitor, partial curve, poor fit]
COc1ccccc1N1CCCc2ncc(C(=O)N3CCCC[C@@H]3Cc3ccccc3)cc21	inconclusive: 50.1 µM [inhibitor, partial curve, poor fit]
C=CCCC(CN1CCCC1)Oc1ncc(F)c(N2CCCC2)n1 (stereo not drawn)	inconclusive: 25.1 µM [inhibitor, full curve, poor fit]
CC(C)c1nc2c(c(-c3ccc(O)cc3)n1)CCN(Cc1ccc(C(F)(F)F)cc1)CC2	active: 35.5 µM
NC1CCc2nn(CC(=O)N(Cc3cccs3)C3CCCC3)c(=O)n2CC1 (stereo not drawn)	inactive
CCc1nc(C)c(C(=O)Nc2nn(C)c3cccc(N4CCOC4=O)c23)o1	inactive
Cc1cc2ccccc2nc1-c1cccc(O)c1	inconclusive: 89.1 µM [inhibitor, single point]
O[C@H]1[C@H](NCC2CCCCC2)[C@H]2CO[C@H](O2)[C@@H]1Sc1ccccc1	inconclusive: 100 µM [inhibitor, partial curve]
Cc1ccc(CC(=O)N2CCC[C@H]2c2nc(-c3ccccc3Cl)no2)cc1	inconclusive: 89.1 µM [inhibitor, single point]

SMILES	Potency
O=C1C(OCC2CC2)C2(CCCCC2)N1C1CCNCC1 (stereo not drawn)	inactive
CO[C@@H]1C[C@H]2C(=O)Nc3ccc(-c4ccccc4F)cc3C(=O)N2C1	inconclusive: 35.5 µM [inhibitor, partial curve, poor fit]
CCCN1CCN(C(=O)c2ccc(-c3ccc(N4CCCCC4)nc3)cc2)CC1	inconclusive: 50.1 µM [inhibitor, partial curve, poor fit]
CCOc1ccccc1NC(=O)Cn1ccn2nc3c(c2c1=O)CCCC3	inconclusive: 79.4 µM [inhibitor, single point]
COc1ccccc1CCC(=O)NC1CCN(c2cc(C(F)(F)F)nc(C)n2)CC1	inconclusive: 50.1 µM [inhibitor, partial curve, poor fit]
COC1CCC12CCN(C(=O)C1CCOCC1)CC2 (stereo not drawn)	inactive
N#Cc1ccc(C(=O)N2CCC3(CC2)CN(c2ccncn2)CC3CO)cc1 (stereo not drawn)	inactive
CC1(NC(=O)C2CC2)CN(Cc2nc(-c3ccccc3OCc3ccccc3)cs2)C1	active: 79.4 µM
O=C(c1cccs1)N1CCC2(CC1)CN(C1CCC1)CC2CO (stereo not drawn)	inconclusive: 56.2 µM [inhibitor, partial curve, poor fit]
CC1(Cc2ccc3c(c2)OCO3)CCCN(C(=O)CCCn2ccnc2)C1 (stereo not drawn)	active: 39.8 µM
COc1ccc(OC)c(NC(=O)Cn2c(N3CCc4ccccc4C3)nc(C)cc2=O)c1	active: 31.6 µM
O=C(NCc1cc2n(n1)CCN(C1CCCCC1)C2)c1cnn2ccccc12	inconclusive: 89.1 µM [inhibitor, single point]
CC1(C)CN(S(=O)(=O)N2CCCC2)CC1c1ccccc1 (stereo not drawn)	inconclusive: 79.4 µM [inhibitor, partial curve]
Cc1ncnc(N2CCC(CO)(Cc3ccccc3C(F)(F)F)CC2)c1C	active: 39.8 µM
COc1cccc(CCN2CC[C@H]3CN(C(=O)Nc4ccc(F)cc4)CC[C@H]3CC2=O)c1OC	inconclusive: 79.4 µM [inhibitor, partial curve, poor fit]
Cc1cc(=O)n(CC(=O)Nc2ccc(F)cc2)c(-c2ccc(F)cc2)n1	inconclusive: 44.7 µM [inhibitor, partial curve, poor fit]
CN1C(=O)C2(CCN(Cc3cncs3)C2)c2ccccc21 (stereo not drawn)	inconclusive: 63.1 µM [inhibitor, full curve]
Cc1ccc(-c2cccc(CN3CCCC3C(=O)NC3CCCC3)c2)cc1Cl (stereo not drawn)	active: 35.5 µM
CS(=O)(=O)N(C[C@H]1O[C@H](Cc2cc(-c3ccccc3)on2)CC[C@@H]1O)S(C)(=O)=O	inactive
COc1ccc(-c2ccccc2NC(=O)C2CCCN(Cc3ccn[nH]3)C2)cc1 (stereo not drawn)	inactive
CC(Cn1cccn1)C(=O)N1CCc2onc(-c3ccc(F)c(F)c3)c2C1 (stereo not drawn)	inconclusive: 50.1 µM [inhibitor, partial curve, poor fit]
